# Laboratory results reported in PubChem BioAssay AID1814 (Broad Institute, 2009).
# Hit rate of the full screen: of about 300,000 compounds, about 22,000 (7.3%) were called active. The shares of active, inactive and inconclusive entries below differ from those in the screen. Rule as the data show it: active = activity score below about -60%; inconclusive = mostly about -28% to -61%; inactive = positive scores.
# Test: Activators via SNCA 5'UTR binding, MLPCN (AID 1814)
# Settings: alpha-synuclein 5'UTR reporter, activators screen; hits give low values; tested at 7.5 µM
row,Compound,activity score
1,CSc1cccc(NC(=O)Nc2ccc(Cl)cc2)c1,active: -96.5%
2,CCOc1ccc(-c2nnc(-c3ccc(OC)cc3)o2)cc1,active: -76.1%
3,Nc1cc([N+](=O)[O-])cc2oc(-c3ccccc3)cc12,inconclusive: -59.4%
4,CCOc1cc(CNc2ccccc2)cc(Br)c1OCC(=O)NC(C)(C)C,inactive: 48.8%
5,COc1cc(C(=O)N=c2sc3ccccc3n2C)cc(OC)c1OC,active: -103%
6,CCc1ccc(C(=O)N/N=C(\C)c2cccnc2)s1,inconclusive: -47.9%
7,Cc1ccccc1Cn1c(=O)n(Cc2ccco2)c(=O)c2ccccc21,inactive: 56.4%
8,Cn1c(=N)n(CC(=O)c2ccccc2)c2ccccc21,inactive: 89.8%
9,Cc1ccc(NC(=O)CN(C)C(=O)CNC(=O)c2sc3ccccc3c2Cl)cc1,inconclusive: -59.3%
10,Cc1cc(C(=O)CSc2nnc3ccccn23)c(C)n1-c1ccccc1,inactive: 102%
11,COc1ccc(Nc2oc(COc3ccc(C)cc3)nc2C#N)cc1,inactive: 67.9%
12,O=C(Nc1cccc(Cl)c1)NC1CC2CCC(C1)N2Cc1cccs1 (stereo not given),inconclusive: -41.9%
13,O=C(Nc1cccc2ccccc12)c1ccccc1,active: -142%
14,CCCCCCCn1c2c(c(=N)c3ccccc31)CCC2,inactive: 79.4%
15,C/C(=N/NC(=O)c1ccc(O)cc1)c1cccc([N+](=O)[O-])c1,inconclusive: -55.6%
16,CC(=O)c1oc2ccccc2c1NC(=O)CN1CCCCC1,inconclusive: -54.7%
17,OC[C@@H](O)[C@@H](O)[C@H](O)[C@@H](O)CO,inconclusive: -45.1%
18,O=c1c2c(nc3c(-c4ccccc4)c[nH]n13)CCC2,inconclusive: -37.3%
19,CCN(CC)S(=O)(=O)c1ccc2c(c1)C(=NO)c1cc(S(=O)(=O)N(CC)CC)ccc1-2,inactive: 115%
20,COc1ccc(Br)cc1CN1CCCCCCC1,inconclusive: -36.8%
21,CC1(C)CC(=O)C(C2C3=C(CC(C)(C)CC3=O)Oc3ccc4ccccc4c32)C(=O)C1 (stereo not given),inconclusive: -56%
22,COc1ccc(C2C(C(N)=O)=C(C)Nc3nc(-c4cccc(Cl)c4)nn32)cc1OC (stereo not given),inconclusive: -40%
23,Cc1c(NC(=O)c2cc3ccccc3oc2=O)c(=O)n(-c2ccccc2)n1C,inconclusive: -55.7%
24,CC(=O)Nc1ccc2nc(NC(=O)c3cccs3)sc2c1,inconclusive: -60.1%

row,Compound,activity score
1,COc1cccc(C(=O)NC(=S)NCc2ccco2)c1,inconclusive: -51.8%
2,O=C(N/N=C\c1ccc([N+](=O)[O-])s1)c1cncc(Br)c1,inactive: 77.2%
3,O=C(COc1ccccc1O)Nc1ccccc1Cl,active: -98.8%
4,Oc1c(CN2CCc3ccccc3C2)cc(Cl)c2cccnc12,inactive: 90.8%
5,Cc1ccc(NC(=O)c2ccccc2NC(=O)CCC(=O)O)cc1,inconclusive: -42.6%
6,COc1ccc(C)cc1N/C(N)=N/c1nc(C)cc(C)n1,inconclusive: -49.1%
7,Cc1nc2nc(-c3ccccc3)nn2c(C)c1Cl,inconclusive: -59.1%
8,COc1ccc(-c2c3c(=O)n(C)c(=O)n(C)c3cn2Cc2cccnc2)cc1,inconclusive: -48.1%
9,CN(Cc1cccs1)C(=O)CSc1nc2ccccc2[nH]1,inconclusive: -54.7%
10,CCC(=O)Oc1ccc(C(=O)Nc2cccc(C(=O)c3ccccc3)c2)cc1,inconclusive: -48%
11,COC(=O)Cc1[nH]n(-c2nc3ccccc3s2)c(=O)c1C(C)=Nc1ccc(OC)cc1,inactive: 68.9%
12,CCOc1ccc(-c2csc(NC(=O)C3CCCO3)n2)cc1 (stereo not given),inconclusive: -49.2%
13,CCOC(=O)c1ccc(NC(=S)NNC(C)(C)C)cc1,inconclusive: -58.4%
14,Cc1ccc(CCNC(=O)NC(C)(C)C)cc1,active: -94.2%
15,CN(C)/C=C1\C(=O)N(c2ccc([N+](=O)[O-])cc2)N=C1c1ccccc1,inconclusive: -39.7%
16,O=C(CSc1nnc2n1CCCN2C(=S)Nc1ccc(Cl)cc1)c1ccccc1,inconclusive: -29.6%
17,O=C1c2ccccc2C(=O)c2c1cccc2N1CCCC1,inconclusive: -48.6%
18,CC1OC(Nc2cccc3ccccc23)C(O)C(O)C1O (stereo not given),inconclusive: -57.8%
19,COc1cnc(-c2ccccn2)nc1N(C)C,inactive: 98.7%
20,COc1ccc(-c2csc(Nc3ccc(S(N)(=O)=O)cc3)n2)cc1OC,inactive: 61.7%
21,O=C(O)c1ccccc1C(=O)Nc1ccc(Oc2cccc3ccccc23)cc1,inactive: 94.4%
22,N#C/C(=C\c1ccncc1)c1ccc(NC(N)=O)cc1,inconclusive: -53.4%
23,Cc1ccc2nc(Cl)c(/C=N/n3c(C)nnc3C)cc2c1,inconclusive: -41.5%
24,CCN(CC)C(=O)Oc1ccc2c(=O)c(-c3ccc(OC)cc3)coc2c1,active: -125%

row,Compound,activity score
1,Cc1cc(C(=O)CSc2nc3ccc(Cl)cc3[nH]2)c(C)n1CC1CCCO1 (stereo not given),inconclusive: -60.6%
2,Cc1nc(N2CCOCC2)sc1C(=O)NN,inconclusive: -58.2%
3,Cc1ccc(C)c(NC(=S)N/N=C2\CCc3ccccc32)c1,inconclusive: -50.4%
4,CC(=O)c1ccc(NC(=O)c2sc3nc(N4CCOCC4)c4c(c3c2N)CCCC4)cc1,inconclusive: -58.3%
5,COc1ccccc1-c1ccc(SCc2ccc(C)cc2)nn1,inconclusive: -61%
6,CC(C)c1ccc(OCc2ccc(C(=O)N3CCCC3)o2)cc1,active: -144%
7,Cc1ccc(-c2nsc3c(N4CCC(C(N)=O)CC4)ncnc23)cc1,active: -99.5%
8,CC(=O)c1ccc(N/N=C(/C(N)=O)C2=NC(C)(C)Cc3ccccc32)cc1,inactive: 56.4%
9,CCCc1nc2oc3c(NCCCN(C)C)ncnc3c2c2c1CCCC2,inactive: 108%
10,Cc1ccc(Nc2nc(N)nc(CCl)n2)c(C)c1,inconclusive: -44.7%
11,COC(=O)c1ccc2c(=O)n(-c3ccccc3F)c(=S)[nH]c2c1,inconclusive: -28.5%
12,CC1(C)c2[nH]c3ccccc3c2C[C@H]2C(=O)N(Cc3ccccc3)C(=O)N21,inconclusive: -49.3%
13,Cc1ccc(NC(=O)Nc2cnccn2)cc1Cl,active: -74.2%
14,CCN(CC)c1ccc(NC(=O)CSc2nc(C3CC3)nc3ccccc23)cc1C,inconclusive: -54.5%
15,O=C(NCCc1ccccc1)c1ccccc1C(=O)NCCc1ccccc1,active: -113%
16,CCc1nnc(NC(=O)c2ccc(C)o2)s1,inconclusive: -47.2%
17,N#CCn1cc(/C=N/NC(=O)c2cc3c(ccc4ccccc43)o2)c2ccccc21,active: -112%
18,N#C/C(=C\c1cccs1)C(=O)NCC1CCCO1 (stereo not given),active: -66.1%
19,Cc1cccc(NC(=O)CCS(=O)(=O)c2ccccc2)c1,inconclusive: -42.4%
20,O=C(O)c1cncc(C#CCC2CCCCC2)c1,inconclusive: -59.5%
21,CCOC(=O)CON1C(=O)C(=O)N(OCC(=O)OCC)C2CCCCC21 (stereo not given),inconclusive: -34.7%
22,COc1ccc(C2=Nn3c(nnc3-c3ccccc3OC)SC2)cc1OC,inactive: 107%
23,O=[N+]([O-])c1cccc(-c2noc(COc3ccccc3)n2)c1,inconclusive: -61.3%
24,O=C(NCc1ccco1)c1ccc(COc2ccccc2Cl)cc1,inconclusive: -55%

row,Compound,activity score
1,C/C(=N\N=C(N)N)c1cc(Cl)ccc1Cl,inactive: 64.7%
2,Cc1ccccc1OCc1nc2ccccc2c(=O)n1/N=C/c1cccc([N+](=O)[O-])c1,inconclusive: -56.1%
3,COc1ccc(C(=O)N/N=C/c2sc3ccccc3c2O)cc1,inactive: 83.8%
4,Cc1ccc(-c2nc3ccccc3c(=O)o2)cc1,active: -84.1%
5,Cc1cc(-c2nc3ncccc3o2)ccc1NC(=O)CC(C)C,active: -74.7%
6,COc1cc(/C=C/c2cccc[n+]2C)ccc1OCC(=O)Nc1cccc(Cl)c1,inconclusive: -41.9%
7,COc1ccc(/C=N/n2c(N)nc(-c3ccccc3)c2-c2ccccc2)cc1,active: -62.6%
8,Oc1ccc(-c2cnns2)c(O)c1,inconclusive: -56%
9,COc1cccc2c1CCc1c-2nc2ccccc2c1C(=O)O,inconclusive: -36.6%
10,CC(C)(C)c1ccc(C(=O)Nc2cccc(C(=O)N3CCOCC3)c2)cc1,inconclusive: -54.5%
11,Cc1c(C2=CCN(S(=O)(=O)c3ccc(Cl)cc3)CC2)c2ccccc2n1C,inconclusive: -43.5%
12,CC(C)(C)c1ccc(OCc2nc(-c3ccccn3)no2)c(Br)c1,active: -190%
13,Cc1ccc(C(=O)Nc2nc3ccccc3n3nnnc23)cc1,inconclusive: -46.1%
14,COc1ccc(NC(=O)Cn2nnc(-c3ccccc3NS(=O)(=O)c3ccc(OC)cc3)n2)cc1,inactive: 107%
15,COc1ccc([N+](=O)[O-])cc1COc1cc(C)cc2oc(=O)cc(-c3ccccc3)c12,inconclusive: -59.6%
16,COc1cc(CNCc2cccnc2)ccc1OCc1ccccc1,inconclusive: -58.4%
17,CCc1ccc(NC(=S)N2CCN(C)CC2)cc1,inconclusive: -53.8%
18,O=C(CCN1C(=O)C2CCCCC2C1=O)Nc1nc(-c2ccccc2)cs1 (stereo not given),active: -64.6%
19,Brc1cccc(OCCSc2ncccn2)c1,active: -69.3%
20,CC(C)NCC(O)Cn1c2c(c3ccccc31)CCc1c-2cnn1-c1ccccc1 (stereo not given),inactive: 108%
21,CCOc1ccc(Nc2nc(N)c3ccccc3n2)cc1,inactive: 102%
22,O=c1c(Cl)c(Cl)cnn1Cc1ccc(F)cc1,inconclusive: -57.3%
23,Cc1nc(Nc2nc3c(c(=O)[nH]2)CCC3)nc2ccccc12,inactive: 126%
